B1: PhoQ; a variant is named by its letters at X, in order, P23837 (parent)
chain: MKKLLRLFFPLSLRVRFLLATAAVVLVLSLAYGMVALIGYSVSFDKTTFRLLRGESNLFYTLAKWENNKLHVELPENIDKQSPTMTLIYDENGQLLWAQRDVPWLMKMIQPDWLKSNGFHEIEADVNDTSLLLSGDHSIQQQLQEVREDDDDAEMTHSVAVNVYPATSRMPKLTIVVVDTIPVELKSSYMVWSWFIYVLSANLLLVIPLLWVAAWWSLRPIEALAKEVRELEEHNRELLNPATTRELTSLVRNLNRLLKSERERYDKYRTTLTDLTHSLKTPLXXLQXXLRSLRSEKMSVSDAEPVMLEQISRISQQIGYYLHRASMRGGTLLSRELHPVAPLLDNLTSALNKVYQRKGVNISLDISPEISFVGEQNDFVEVMGNVLDNACKYCLEFVEISARQTDEHLYIVVEDDGPGIPLSKREVIFDRGQRVDTLRPGQGVGLAVAREITEQYEGKIVAGESMLGGARMEVIFGRQHSAPKDE

The list shows a part of the results.

Variants of B1 are the subject of this test. Description: enrichment ratio after two sorts for PhoP signalling (ratio (wild type AVST 3.29)); higher = more functional. Particulars: with PhoP (E. coli).
For the variant QHKA, the enrichment ratio is at most 0.25. On to LGHG, for which the enrichment ratio was at most 0.25.

For the variant PPVS, the enrichment ratio is at most 0.25. On to YSAK, for which the enrichment ratio is at most 0.25. With GAVQ, the enrichment ratio is at most 0.25. Take VCAC: the enrichment ratio was at most 0.25. Under RTTL stands at most 0.25; under KKFN, at most 0.25. For the variant RYRQ, the enrichment ratio is at most 0.25.

Regarding DVMA, the enrichment ratio was at most 0.25.

As to ESYL, the enrichment ratio was at most 0.25. Turning to QYCL, the enrichment ratio was at most 0.25. Under KFSS stands at most 0.25. With KTTM, the enrichment ratio is at most 0.25. Under TCCP stands at most 0.25. On to WYDP, for which the enrichment ratio was at most 0.25. With QPRA, the enrichment ratio is at most 0.25. On to QAWT, for which the enrichment ratio was at most 0.25. As for KALM, the enrichment ratio was at most 0.25.

On to PLET, for which the enrichment ratio is at most 0.25. Under VFMA stands at most 0.25; under KPKP, at most 0.25.

Turning to MFCF, the enrichment ratio is at most 0.25. Under HMLH stands at most 0.25. Consider LQAP, for which the enrichment ratio was at most 0.25. Regarding ICDK, the enrichment ratio is at most 0.25. In the case of ATVC, the enrichment ratio is at most 0.25.

Take DESS: the enrichment ratio is at most 0.25. As for QNST, the enrichment ratio was found to be 2.38. As for MDHA, the enrichment ratio was at most 0.25. Under KSPM stands at most 0.25; under AHHY, at most 0.25.

For PTLT, the enrichment ratio was at most 0.25. Under LDHH stands at most 0.25; under HSSH, at most 0.25. On to KHEH, for which the enrichment ratio is at most 0.25. For the variant ATMH, the enrichment ratio came out at 12.3. With LAEI, the enrichment ratio is at most 0.25.

For WFYA, the enrichment ratio was at most 0.25.

LGTW: the enrichment ratio is at most 0.25. Consider WMHG, for which the enrichment ratio was at most 0.25.

As to LAWH, the enrichment ratio is at most 0.25. For the variant KDSL, the enrichment ratio is at most 0.25.

For the variant LLTR, the enrichment ratio was at most 0.25. Take EDCR: the enrichment ratio is at most 0.25.

For MGSD, the enrichment ratio was at most 0.25.

As for SIPY, the enrichment ratio was at most 0.25.

Consider IGHW, for which the enrichment ratio is at most 0.25. As to GACS, the enrichment ratio was determined as 4.76. Consider RNYF, for which the enrichment ratio was at most 0.25.

EMLY: the enrichment ratio is at most 0.25. Turning to HILH, the enrichment ratio is at most 0.25.

In the case of WPLQ, the enrichment ratio is at most 0.25.

In the case of TEGQ, the enrichment ratio was at most 0.25. As for NQKR, the enrichment ratio was at most 0.25. Take ADYR: the enrichment ratio is at most 0.25.

FGMV: the enrichment ratio amounted to 16.7. LHIR: the enrichment ratio was at most 0.25. Under LFPS stands at most 0.25; under WPSD, at most 0.25. In the case of STWM, the enrichment ratio is at most 0.25.

Turning to IAWD, the enrichment ratio was at most 0.25. As for LSCC, the enrichment ratio is at most 0.25. For FYNH, the enrichment ratio was at most 0.25. Take IWTI: the enrichment ratio is at most 0.25. Consider WVSN, for which the enrichment ratio was at most 0.25. On to RTHF, for which the enrichment ratio is at most 0.25. On to SNAR, for which the enrichment ratio is at most 0.25. As for YEGR, the enrichment ratio was at most 0.25. PARE: the enrichment ratio was at most 0.25. For RRDY, the enrichment ratio was at most 0.25. For the variant GWMM, the enrichment ratio is at most 0.25.

For the variant KTHN, the enrichment ratio is at most 0.25. On to PLQL, for which the enrichment ratio was at most 0.25. In the case of INDL, the enrichment ratio was at most 0.25. On to TVWI, for which the enrichment ratio is at most 0.25. On to IETK, for which the enrichment ratio is at most 0.25. For the variant QGPW, the enrichment ratio was at most 0.25. As for QVLG, the enrichment ratio was at most 0.25. In the case of QYWY, the enrichment ratio stood at 8.23.

For the variant LALR, the enrichment ratio is at most 0.25. On to PQPI, for which the enrichment ratio is at most 0.25.

Take TLVQ: the enrichment ratio was at most 0.25. As for NKIY, the enrichment ratio is at most 0.25.
